Source: PubChem BioAssay AID540317 (National Center for Advancing Translational Sciences (NCATS), 2011)
The campaign covered roughly 390,000 compounds. About 2,200 (0.56%) were called active. Inconclusive means that the source gave no clear call. Such entries were picked first, then a sample of the others. Calls come from the whole dose curve; as a rule, active = well fitted inhibition curve with a large enough effect; inconclusive = small, poorly fitted or top-dose-only effect; inactive = no such curve, though single readings can be large or run the other way. Where the call is inconclusive, the potency comes from a doubtful curve fit.
Note: nearly all actives have a fitted effect of over 70% in size.
Potency is the fitted concentration of half-maximal effect; tags give direction and shape of the fitted curve.

What follows are molecules tested against Chromobox protein homolog 1 (Homo sapiens) (UniProt P83916) (assay: HTS for Inhibitors of HP1-beta Chromodomain Interactions with Methylated Histone Tails). Conditions: AlphaScreen HP1-beta / biotin-H3K9me3 peptide binding; series mostly up to 114 µM.
Sequence of UniProt P83916 (P83916 whole entry, looked up): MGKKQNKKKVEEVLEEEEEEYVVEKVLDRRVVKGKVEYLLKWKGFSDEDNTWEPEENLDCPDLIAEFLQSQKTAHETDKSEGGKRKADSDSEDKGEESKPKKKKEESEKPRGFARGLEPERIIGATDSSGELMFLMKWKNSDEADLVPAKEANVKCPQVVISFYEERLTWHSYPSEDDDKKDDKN
How it was run: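 HP1-beta protein (50 nM final) preincubated 30 min at room temperature with biotinylated H3(1-18)K9me3 peptide (50 nM) in PBS pH 7.4, 0.01% Tween-20, then compound added for 30 min. AlphaScreen streptavidin donor/nickel chelate acceptor beads (10 ug/mL final), 30 min dark, luminescence read.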
In the case of `COc1ccc(CCNCC(=O)Nc2ccc(OC(F)(F)F)cc2)cc1OC`, the Potency is reported as inconclusive: 28.2 µM [inhibitor, single point]. With `Cc1sc2nc(CN3CCOCC3)nc(N3CCOCC3)c2c1C` the Potency was inconclusive: 8.91 µM [inhibitor, full curve, poor fit]. For `Cc1cccc(-n2cc(-c3ccccc3)c3c(=O)[nH]cnc32)c1`, the Potency was inconclusive: 70.8 µM [inhibitor, partial curve]. With `C=CCNC(=S)Nc1sc2c(c1C(N)=O)CCCC2` the Potency was inconclusive: 12.6 µM [inhibitor, full curve]. For `COc1cc2cnc(-c3ccccc3)c(-c3ccc([N+](=O)[O-])cc3)c2cc1OC`, the Potency was inconclusive: 70.8 µM [inhibitor, partial curve]. With `CCCC[C@@H]1CN=C(N)N1CC(C)(C)C` the Potency was “inactive”. `CCCCNC(=S)N/N=C1\C(=O)c2cccc3cccc1c23` was tested, and the Potency was inconclusive: 28.2 µM [inhibitor, partial curve]. In the case of `COc1cccc(/C=C2/CCC(CN(C)C)C2=O)c1` (stereo not drawn), the Potency is reported as inconclusive: 50.1 µM [inhibitor, partial curve, poor fit]. For `COCCN(C(=O)COC(=O)CCC1CCCC1)c1c(N)n(Cc2ccccc2)c(=O)[nH]c1=O`, the Potency was “inactive”. In the case of `CCCc1cc(-c2nc(N)ncc2-c2ccc3c(c2)OCCCO3)c(O)cc1OC`, the Potency is reported as inconclusive: 50.1 µM [inhibitor, partial curve]. With `Cc1ccc(OCCOCCN2CCN(C)CC2)c(C(C)(C)C)c1` the Potency was inconclusive: 14.1 µM [inhibitor, partial curve, poor fit]. For `NNC(=O)c1cc(O)c(O)c(O)c1`, the Potency was active: 44.7 µM. For `Cc1ccc(NC(=O)Cn2c(=O)n(Cc3nc(C)no3)c(=O)c3cc4c(cc32)OCO4)cc1`, the Potency was “inactive”. For `CSc1nc(SCC(=O)O)c2sc3nc(-c4ccccc4)c4c(c3c2n1)CCC4`, the Potency was inconclusive: 44.7 µM [inhibitor, partial curve]. With `CCc1cc(C(=O)c2ccc(OC)cc2)c(N)s1` the Potency was inconclusive: 50.1 µM [inhibitor, partial curve]. With `O=C(N[C@@H](CO)C(=O)NCc1ccccc1)c1ccc(C(F)(F)F)cc1` the Potency was inconclusive: 39.8 µM [inhibitor, single point]. In the case of `Cc1cccc(NC(=S)NCc2ccc3[nH]c4c(c3c2)CCCC4)c1`, the Potency is reported as inconclusive: 17.8 µM [inhibitor, full curve]. With `Cc1cc(Cl)ccc1OCC(=O)NCCOC(=O)Nc1sc(=S)n(C)c1C` the Potency was inconclusive: 70.8 µM [inhibitor, partial curve, poor fit]. For `CCOc1ccccc1-n1c(SCC(N)=O)nnc1-c1ccc(O)cc1`, the Potency was “inactive”. With `CCN(CC)c1ccc(/C=C2/C(=O)ON=C2C)cc1` the Potency was inconclusive: 35.5 µM [inhibitor, partial curve]. `COc1ccccc1-n1c(SCC(=O)NCc2ccc3c(c2)OCO3)nc2cc([N+](=O)[O-])ccc21` was tested, and the Potency was inconclusive: 56.2 µM [inhibitor, single point]. In the case of `COc1ccccc1N1CCN(C(=O)c2ccc3[nH]c4c(c3c2)CC(C)CC4)CC1` (stereo not drawn), the Potency is reported as inconclusive: 44.7 µM [inhibitor, partial curve]. In the case of `Cc1cccc(CCN=c2c([N+](=O)[O-])nn(-c3ccccc3)n2O)c1`, the Potency is reported as inconclusive: 17.8 µM [inhibitor, full curve]. With `CCOC(=O)CCC(NC(=O)CCCCCCCC(=O)NC(CCC(=O)OCC)C(=O)OCC)C(=O)OCC` (stereo not drawn) the Potency was “inactive”. With `CC1(c2cccc3ccccc23)OC(=O)c2ccccc21` (stereo not drawn) the Potency was “inactive”. In the case of `COc1ccc(CCNCC(=O)Nc2ccc(C(=O)N3CCCCC3)cc2)cc1`, the Potency is reported as inconclusive: 56.2 µM [inhibitor, partial curve, poor fit]. With `COc1ccc(S(=O)(=O)NCC(c2ccc(N(C)C)cc2)N2CCc3ccccc32)cc1OC` (stereo not drawn) the Potency was inconclusive: 17.8 µM [inhibitor, full curve]. With `CCOC(=O)c1sc(=S)n(-c2ccccc2)c1N` the Potency was inconclusive: 25.1 µM [inhibitor, partial curve, poor fit]. With `CCN(CC)c1ccc(Nc2nc(Cl)ncc2Br)cc1` the Potency was inconclusive: 39.8 µM [inhibitor, partial curve]. For `C=CCc1cc(Cl)ccc1OCCCNC(C)CC` (stereo not drawn), the Potency was inconclusive: 22.4 µM [inhibitor, partial curve]. For `CN1CCN(c2nc3ccccn3c(=O)c2/C=C(\C#N)S(=O)(=O)c2ccc(Cl)cc2)CC1`, the Potency was inconclusive: 79.4 µM [inhibitor, partial curve, poor fit]. With `O=C(CSc1nc(-c2ccc(F)cc2)nc2c1Cc1ccccc1O2)Nc1ccc(C(=O)O)cc1` the Potency was inconclusive: 20 µM [inhibitor, partial curve, poor fit]. In the case of `Brc1ccc(-c2nc3ncccn3c2NC2CCCCC2)o1`, the Potency is reported as inconclusive: 79.4 µM [inhibitor, single point]. `Cc1ccc(C(=O)NC(=S)Nc2ccc(N3CCOCC3)cc2)c(C)c1` was tested, and the Potency was inconclusive: 15.8 µM [inhibitor, partial curve]. In the case of `O=C(C1CCCN(Cc2ccccc2F)C1)N1CCCC1` (stereo not drawn), the Potency is reported as inconclusive: 17.8 µM [inhibitor, full curve]. `Cc1cc(Br)ccc1OCCN1CCCC1` was tested, and the Potency was inconclusive: 44.7 µM [inhibitor, partial curve, poor fit]. In the case of `CCCCCCCCOC(=O)C[N+](C)(C)C/C=C(/C)Cl`, the Potency is reported as “inactive”. For `CC1CCCN(C2=C(NS(=O)(=O)c3ccc(Br)cc3)C(=O)c3ccccc3C2=O)C1` (stereo not drawn), the Potency was inconclusive: 4.47 µM [inhibitor, partial curve, poor fit]. `C=CCn1c(-c2ccccc2)c[nH]c1=S` was tested, and the Potency was inconclusive: 35.5 µM [inhibitor, single point]. In the case of `COc1cc(OC)c(OC)cc1CN1CCN(Cc2ccc(C(F)(F)F)cc2)CC1`, the Potency is reported as inconclusive: 14.1 µM [inhibitor, full curve, poor fit]. `N#Cc1c2n(c(=O)[nH]c1=O)CCCCC2` was tested, and the Potency was “inactive”. For `Cc1ccc(S(=O)(=O)n2nc(C)cc2N)cc1`, the Potency was “inactive”. With `CCN1CCN(C(=O)C(=O)c2cn(CC(=O)N3CCCC3)c3ccccc23)CC1` the Potency was “inactive”. In the case of `O=C(Cn1cnc2nc3c(cc2c1=O)CCCC3)N1CCN(c2ccccc2)CC1`, the Potency is reported as “inactive”. In the case of `COc1ccc(NC(=O)COC(=O)Cn2cnc3ccccc32)cc1`, the Potency is reported as “inactive”. With `CC1Cc2ccccc2N1C(=O)CN1CCC(C(N)=O)CC1` (stereo not drawn) the Potency was “inactive”. `CCOC(=O)Nc1ccc2c(c1)N(C(=O)CCN(CC)CC)c1ccccc1S2=O` (stereo not drawn) was tested, and the Potency was “inactive”. For `O=C(NCC(=O)N(CCc1ccccc1)C(C(=O)NC1CCCC1)c1cccnc1)c1ccco1` (stereo not drawn), the Potency was “inactive”. In the case of `CC1CCCC(NCC(O)COC(c2ccc(F)cc2)c2ccc(F)cc2)C1C` (stereo not drawn), the Potency is reported as inconclusive: 56.2 µM [inhibitor, partial curve, poor fit]. In the case of `O=C(Cc1cccc(NC(=O)C2CCCN(C(=O)C3CCCCC3)C2)c1)Nc1ccc(C(=O)N2CCOCC2)cc1` (stereo not drawn), the Potency is reported as “inactive”. For `CC[C@H](C)C1NC(=O)[C@H](CC(=O)O)NC(=O)c2cc([N+](=O)[O-])cc(I)c2NCCC(C(N)=O)NC1=O` (stereo partly drawn), the Potency was “inactive”. For `COc1cc(C(=S)N2CCCC2)cc(OC)c1OS(=O)(=O)c1ccc(NC(C)=O)cc1`, the Potency was inconclusive: 17.8 µM [inhibitor, full curve]. In the case of `CCOc1cc(C2C(C(=O)OC)=C(C)NC3=C2C(=O)c2ccccc23)c(Br)cc1O` (stereo not drawn), the Potency is reported as inconclusive: 39.8 µM [inhibitor, partial curve]. In the case of `CC(Cc1c[nH]c2ccccc12)C(=O)NCc1ccco1` (stereo not drawn), the Potency is reported as inconclusive: 39.8 µM [inhibitor, partial curve]. `Cn1c2ccccc2c2nnc(SC3CCOC3=O)nc21` (stereo not drawn) was tested, and the Potency was inconclusive: 3.98 µM [inhibitor, full curve, poor fit]. With `O=C1c2cccc3c(Nc4ccccc4Cl)c([N+](=O)[O-])cc(c23)C(=O)N1CCO` the Potency was inconclusive: 15.8 µM [inhibitor, full curve, poor fit]. In the case of `CCOC(=O)C1CCCN(S(=O)(=O)c2csc(C(N)=O)c2)C1` (stereo not drawn), the Potency is reported as “inactive”. With `CC1=CS(=O)(=O)CC1Sc1nc(C)n[nH]1` (stereo not drawn) the Potency was “inactive”. For `Cc1ccccc1Nc1c(-c2ccncc2)nc2ccc(Cl)cn12`, the Potency was “inactive”. With `C/C=C\C=C/C(=O)Nc1cccc(C2=NOC3(C2)C[C@@H](C(N)=O)N(C(=O)C2(C)CC2)C3)c1` (stereo partly drawn) the Potency was “inactive”. In the case of `COc1cc(C)ccc1OCCOCCOc1cccc2ccc(C)nc12`, the Potency is reported as inconclusive: 14.1 µM [inhibitor, full curve, poor fit]. In the case of `CN1CCN(S(=O)(=O)c2ccc(Nc3cccc(Cl)c3)c([N+](=O)[O-])c2)CC1`, the Potency is reported as inconclusive: 70.8 µM [inhibitor, single point]. In the case of `CNc1nc(-c2ccc3c(c2)CCN3C(=O)c2cccc(F)c2)cs1`, the Potency is reported as inconclusive: 25.1 µM [inhibitor, partial curve, poor fit]. For `Cc1cc(C(F)F)n2nc(C(=O)Nc3sc4c(c3C#N)CCC(C)C4)nc2n1` (stereo not drawn), the Potency was inconclusive: 35.5 µM [inhibitor, partial curve, poor fit]. With `Cn1c(-c2ccccc2)cnc1NCc1ccccc1` the Potency was inconclusive: 44.7 µM [inhibitor, partial curve, poor fit]. For `CCOC(=O)c1c(N)sc(=S)c2c1CCC2`, the Potency was inconclusive: 25.1 µM [inhibitor, partial curve, poor fit]. With `C=CCc1cc(C)ccc1OCCn1ccnc1` the Potency was inconclusive: 50.1 µM [inhibitor, partial curve, poor fit]. In the case of `CCOc1ccc(NC(=O)CCS(=O)(=O)c2ccc(Br)cc2)cc1`, the Potency is reported as active: 20 µM.
